# The whole screen tested about 43,000 compounds, of which about 200 (0.47%) were called active. Roughly 12% stayed inconclusive and do not appear here. The call rests on the fitted dose curve; in most records, active means well fitted cell-killing curve with a large enough effect; inconclusive means small, poorly fitted or top-dose-only effect, or effect the other way; inactive means flat fitted curve, though single readings scatter. This is one part of the list.
# Assay: Cell viability qHTS assay in S16 Pmp22-F2sN cells; further: nearly all actives have a fitted effect of over 65% in size
# Conditions: S16 Pmp22-F2sN Schwann cells viability, CellTiter-Glo, 24 h; series mostly up to 57.5 µM; activity change, negative = cytotoxicity: at the top concentration
# How it was run: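 S16 Pmp22-F2sN Schwann cells (500-1,000/well) in phenol-red-free DMEM with 10% FBS received 23 nL compound by pin tool for 24 h at 37 °C. Viability was then read as CellTiter-Glo luminescence after 15 min at room temperature.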
# On the % scale 0 is the no-effect control and ±100 the full control effect.
row,SMILES,"activity change, negative = cytotoxicity"
1,CC(=O)c1cccc(-n2c(=O)c3c4c(sc3n(CC(=O)c3ccc(Cl)cc3)c2=O)CN(C(C)=O)CC4)c1,inactive: 3.88%
2,CC1CCCCN1C(=O)CSc1n[nH]c(-c2ccccc2)n1 (stereo not drawn),inactive: -1.83%
3,Cc1cccc(C(=O)N(Cc2ccco2)Cc2ccccc2F)c1,inactive: -2.48%
4,Cc1ccc(CCNC(=O)C2CC(=O)N(CCc3ccccc3)C2)cc1 (stereo not drawn),inactive: -0.75%
5,COc1ccc(CCNC(=O)c2ccc3c(c2)c(C)c(C)n3Cc2ccccc2)c(OC)c1OC,inactive: -21.5%
6,O=C(Nc1cccc(Cl)c1)c1cc(-c2ccccc2)on1,inactive: 6.48%
7,COc1ccc(CNC(=O)CCCc2nnc3n(CCC(C)C)c(=O)c4sccc4n23)cc1,inactive: 4.91%
8,Cn1cc(C(=O)NCCc2ccc(Cl)cc2)c(=O)c2cc(S(=O)(=O)N3CCOCC3)ccc21,inactive: 3.96%
9,O=c1[nH]c(C2CCCN(S(=O)(=O)c3ccccc3Cl)C2)nc2c1nnn2Cc1ccc(OC(F)(F)F)cc1 (stereo not drawn),inactive: 4.22%
10,CCC(=O)Nc1ccccc1-c1nc2ccccc2n(C(C)C(=O)Nc2ccc(OC)cc2)c1=O (stereo not drawn),inactive: 0.578%
11,O=C(O)c1ccc(N2C(=O)c3[nH]nc(-c4ccccc4)c3C2c2cccc(F)c2)cc1 (stereo not drawn),inactive: 16.6%
12,CN(c1ccccc1)c1ncnc2c1cnn2C,inactive: -14.7%
13,COc1ccc(N2CCN(C(=O)c3cc4cc5ccc(Cl)cc5nc4o3)CC2)cc1,inactive: -0.81%
14,COc1ccc(C)cc1S(=O)(=O)NCC(c1ccc(N(C)C)cc1)N1CCc2ccccc21 (stereo not drawn),inactive: -4.79%
15,Cc1cc(NC(=O)N2CCC(CN3CCOCC3)CC2)ccc1Br,inactive: 5.52%
16,COc1cccc(C2C(=O)N(C3CCCCC3)CC(=O)N2Cc2ccc(Cl)cc2)c1 (stereo not drawn),inactive: -7.42%
17,Cc1ccc2c(c1)C(=O)OC(C(=O)Nc1ncc(Cc3ccccc3)s1)C2 (stereo not drawn),inactive: 7.9%
18,CCc1ccc(C2C(C(=O)Nc3ccc(Cl)cc3)=C(C)Nc3ncnn32)cc1 (stereo not drawn),inactive: -8.72%
19,CCNc1nc(Oc2ccc(=O)n(-c3ccccc3)n2)nc(N(C)C)n1,inactive: 2.68%
20,CC(C)Oc1ccc(C(=O)Nc2ccc(-c3nc4ccccc4s3)cc2)cc1,inactive: -2.71%
21,COc1ccc(CCC(=O)NCc2nc3cccnc3n2Cc2ccccc2)cc1,inactive: 10.5%
22,Cc1ccc(Cl)cc1NC(=O)CCCN1C(=O)CCn2nc(-c3cn(C)c4ccccc34)cc21,inactive: -2.68%
23,CCOc1ccc(CCNC(=O)CCn2c(=O)c3cccn3c3cccnc32)cc1,inactive: -12.1%
24,COc1ccccc1C(=O)Nc1cc(-c2ccc(C)cc2)no1,inactive: -4.57%
25,Cc1ccccc1Cn1c(CN2CCN(c3cc(Cl)ccc3C)CC2)nc2c1c(=O)[nH]c(=O)n2C,inactive: 1.06%

row,SMILES,"activity change, negative = cytotoxicity"
1,CCc1ccccc1Nc1nn2c(=O)c3ccc(C(=O)Nc4ccc(OC)cc4)cc3nc2s1,inactive: -17.8%
2,CC(=O)Nc1cc(-c2ccccc2)nn1Cc1cccc(Cl)c1,inactive: -5.16%
3,Cc1cccc(NC(=O)NCCOCCn2c(=O)oc3ccccc32)c1C,inactive: 0.468%
4,O=C(CSc1nc2ccccc2nc1Cc1ccccc1)N1CCN(c2ccccc2)CC1,inactive: 6.2%
5,Cc1noc(NS(=O)(=O)c2ccc(NC(=O)c3ccc(Br)cc3)cc2)c1C,inactive: -3.89%
6,COC(=O)c1nnn(CC(=O)NC(=O)Nc2ccccc2F)c1C(=O)OC,inactive: 10.8%
7,Cc1c(Cl)cccc1NC(=O)c1ccc2nc(C(C)C)oc2c1,inactive: 2.42%
8,Cc1c(Cl)cccc1-n1c(CCC(=O)O)ccc1-c1cccs1,inactive: 0.0616%
9,CCSc1nc2n(n1)C(c1ccc(CC)cc1)C(C(=O)Nc1ccccc1OC)=C(C)N2 (stereo not drawn),inactive: 19%
10,CCC(C(=O)N1CCN(c2cc(Cl)ccc2C)CC1)n1nc(C)n2c(cc3occc32)c1=O (stereo not drawn),inactive: -10.5%
11,COc1ccc(Br)cc1CNC(=O)C(C)n1nc(C)n2c(cc3occc32)c1=O (stereo not drawn),inactive: -0.0673%
12,CCc1cccc(NC(=O)CN2C(=O)CCc3cc(S(=O)(=O)N4CCOCC4)ccc32)c1,inactive: 22.6%
13,COc1cc(CNCc2c(C(=O)O)c(C)n(Cc3cccc(Cl)c3)c2C)cc(OC)c1OC,inactive: 4.04%
14,CCc1ccc2nc(N3CCC(C(=O)O)CC3)sc2c1,inactive: -2.96%
15,Cc1ccc(CN2CCSc3ccc(C(=O)Nc4ccc(F)cc4F)cc32)cc1,inactive: -1.86%
16,Cc1ccc2oc(C(=O)Nc3nnc(CC(C)C)s3)cc(=O)c2c1,inactive: -23.9%
17,CCc1ccc(NC(=O)CSc2nccn2C2CCCC2)cc1,inactive: -1.96%
18,Cc1ccc(C)c(S(=O)(=O)c2cnc(SCC(=O)Nc3ccc(F)cc3F)[nH]c2=O)c1,inactive: 0.496%
19,Cc1cc2c(=O)c(C(=O)c3ccncc3)cn(CC(=O)Nc3cccc(C)c3C)c2cc1C,inactive: 10.8%
20,CC(NC(=O)CN(C)S(=O)(=O)c1ccc2c(c1)c(=O)n(C)c(=O)n2C)c1ccccc1 (stereo not drawn),inactive: 1.42%
21,Cn1cc(S(=O)(=O)N2CCCCC2)cc1C(=O)N1CCN(c2ccc(F)cc2)CC1,inactive: 11.9%
22,Cc1cc(=O)n(CC(=O)NCCC(C)C)c2c1c(C)nn2C,inactive: 7.47%
23,Cc1ccc2c(c1)c(=O)c(C(=O)c1ccncc1)cn2CC(=O)Nc1c(C)cccc1C,inactive: 8.23%
24,Cc1cccc(NC(=O)Cn2c(=O)oc3cc(S(=O)(=O)NCc4ccccc4)ccc32)c1,inactive: -10.4%
25,Cc1ccc2nc(N(Cc3cccnc3)C(=O)C3CCCCC3)sc2c1,inactive: 2.79%

row,SMILES,"activity change, negative = cytotoxicity"
1,COc1ccc(Br)cc1C1CC(=O)Nc2c1c(C)nn2-c1nc(C)cc(C)n1 (stereo not drawn),inactive: 0.373%
2,CCn1cc(C(=O)OCC(=O)Nc2cc(Cl)ccc2OC)c(=O)c2ccc(C)nc21,inactive: -1.08%
3,Cc1c(C(N)=O)nnn1-c1ccc(Br)cc1,inactive: 10.7%
4,CCN(CC)CCNC(=O)C1CCCN(c2ncnc3onc(C)c23)C1 (stereo not drawn),inactive: -4.19%
5,Cc1ccc(C)c(-c2csc(-c3c(N)c(C(=O)c4ccc5c(c4)OCO5)n4ccccc34)n2)c1,inactive: -3.73%
6,COc1ccc(CCNC(=O)Cn2nc(C)n3c(cc4occc43)c2=O)cc1OC,inactive: -2.68%
7,CCOC(=O)c1c(S(=O)(=O)N2CCCC(C(=O)N3CCN(c4ccc(F)cc4)CC3)C2)c(C)n(C)c1C (stereo not drawn),inactive: -0.852%
8,COc1ccc(CCNC(=O)Cn2ncc3c(C)n(Cc4ccccc4F)c(C)c3c2=O)cc1OC,inactive: 3.12%
9,CCOc1ccc(NC(=O)N(Cc2c[nH]c3ccccc23)C2CCCCC2)cc1,inactive: 5.13%
10,Nc1cc(=O)nc(SCC(=O)Nc2ccc(F)cc2)n1-c1ccc(Cl)cc1,inactive: -6.17%
11,COc1cc(OC)c(NC(=O)CCn2cnc3onc(-c4ccc(F)cc4)c3c2=O)cc1Cl,inactive: -19.4%
12,CCCCNC(=O)c1[nH]c2ccccc2c1Sc1ccc(C)cc1,inactive: 15.2%
13,Cc1ccc(CNCc2c(C(=O)O)n(Cc3ccccc3C)c3cc(C)ccc23)cc1,inactive: -0.791%
14,COc1ccc(C2(CNC(=O)C(=O)Nc3cccc(C(F)(F)F)c3)CCCC2)cc1OC,inactive: -5.96%
15,Cc1ccc(S(=O)(=O)Nc2cccc(-c3ccc(N4CCCCC4)nn3)c2)s1,inactive: -16.6%
16,CC(=O)c1cccc(NC(=O)c2nc(-c3ccc(C)cc3)n3c2CCCCC3)c1,inactive: -15.9%
17,Cc1cccc(NC(=O)C2CCCN(S(=O)(=O)c3cccc4nonc34)C2)c1 (stereo not drawn),inactive: 2.1%
18,O=C(NCCc1ccc(Cl)cc1)c1ccc(CSCc2ccccc2Cl)o1,inactive: -12.1%
19,Cc1ccc(NC(=O)C(=O)NCc2ccc(Cl)cc2)cc1,inactive: 3.21%
20,CCOC(=O)C(C)Sc1nnc2ccc3ccccc3n12 (stereo not drawn),inactive: 14.5%
21,COc1ccccc1OCC(=O)Nc1nc2c(s1)CC(C)CC2 (stereo not drawn),inactive: 0.558%
22,Cc1ccc2nc(-c3ccc(Cl)cc3)cc(C(=O)OCC(=O)c3ccccc3)c2c1,inactive: 1.79%
23,COc1ccc(C(=O)NCC(c2ccc(N(C)C)cc2)N2CCCC2)c(OC)c1 (stereo not drawn),inactive: 5.55%
24,Cc1cccc(-c2nc(CSc3nncn4c3cc3oc(C)cc34)c(C)o2)c1,inactive: -1.09%
25,CCC(Cn1nnc2ccccc2c1=O)NC(=O)Nc1ccc(C)cc1C (stereo not drawn),inactive: -3.65%

row,SMILES,"activity change, negative = cytotoxicity"
1,COc1ccc(NC(=O)c2sc3nc4c(cc3c2N)CN(Cc2ccccc2)CC4)cc1,inactive: 2.16%
2,COc1ccc(C(=O)NCCc2sc(-c3ccc(F)cc3)nc2C)cc1OC,inactive: -18.7%
3,CC1CCC(NC(=O)C2(C)Cc3ccccc3C(=O)N2Cc2ccc(F)cc2)CC1 (stereo not drawn),inactive: 25.1%
4,Cc1ccc(CNC(=O)CCc2c(C)nc3nc(CNC(=O)OC(C)(C)C)nn3c2C)cc1,inactive: -17%
5,CC(=O)c1cccc(Nc2ccc3cc(S(=O)(=O)N4CCC(C)CC4)ccc3n2)c1,inactive: -6.04%
6,CCCNC(=O)CCNS(=O)(=O)c1ccc2c(c1)c(=O)n(C)c(=O)n2C,inactive: 2.9%
7,CCC(=O)N1CCc2cc(S(=O)(=O)NCCC(=O)Nc3ccc(C)cc3)ccc21,inactive: -7.67%
8,COc1cc(C(=O)n2nc(-c3ccco3)nc2NCc2ccc(Cl)cc2)cc(OC)c1OC,inactive: 1.6%
9,Cc1cccc(NCc2nc3ccccc3n2CCOc2ccccc2C)c1,inactive: -17.1%
10,CCC(=O)N1CCc2cc(S(=O)(=O)NC(CC(C)C)C(=O)Nc3cc(C)ccc3OC)ccc21 (stereo not drawn),inactive: -19%
11,CCC12CN3CC(C)(CN(C1)C3c1c[nH]c3ccccc13)C2=O (stereo not drawn),inactive: 0.707%
12,CC1=C(C(=O)Nc2ccc(C)cc2C)C(c2ccc(O)cc2)n2nnnc2N1 (stereo not drawn),inactive: -18.1%
13,COc1ccc(/C=C\c2onc(C)c2S(=O)(=O)N2CCC(C(=O)Nc3ccc(C)cc3C)CC2)cc1,inactive: 0.588%
14,CCc1ccc(NC(=O)CSC2=Nc3ccccc3C3=NC(CCC(=O)NCCc4ccccc4)C(=O)N23)cc1 (stereo not drawn),inactive: -19.2%
15,CCS(=O)(=O)c1ncc(N(Cc2ccco2)Cc2sccc2C)c(C(=O)Nc2ccc(C)cc2C)n1,inactive: 2.25%
16,CCCOc1ccc(C(=O)Nc2cccc(NC(=O)c3cccc(Cl)c3)c2)cc1,inactive: -0.834%
17,COc1ccc(-c2cc(C(F)(F)F)nc(SCC(=O)NCc3ccc(OC)c(OC)c3)n2)cc1,inactive: 4.78%
18,CCc1nnc2c(Nc3cccc(C(C)=O)c3)nc3ccccc3n12,inactive: 2.2%
19,CCCCc1nn2c(=O)cc(COC(=O)c3cccc(OC)c3)nc2s1,inactive: -21.2%
20,COc1ccccc1N(CC(=O)NCCSCc1ccccc1)S(C)(=O)=O,inactive: -1.93%
21,CCCCc1nn2c(=O)cc(COC(=O)COc3ccc(C)cc3)nc2s1,inactive: 15.2%
22,COc1ccc(NC(=O)CN2C(=O)COc3ccc(S(=O)(=O)Nc4ccccc4)cc32)cc1,inactive: -8.53%
23,CCOC(=O)CN1C(=O)c2ccccc2Sc2ncccc21,inactive: -2.41%

# From PubChem BioAssay AID1508642 (National Center for Advancing Translational Sciences (NCATS), 2021)
